Variants at the floor of the assay are shown more often than the library holds them.
B1: TPR 5TU (parent)
chain: GGAUCUUCUCGAUCUAACAAAAAAGACAAAUCUGCCACAAAGCUUGAGAGCAUCUUCGGAUGCAGAGGCGGCAGCCUUCGGUGGCGCGAUAGCGCCAACGUUCUCAACUAUGACACGCAAAACGCGUGCUCCGUUGAAUGGAGUUUAUCAUG

Variants of: B1
Assay: polymerase ribozyme fitness, log enrichment relative to wild type (log ratio); higher = more active; in vitro selection for triplet polymerase activity
Outline: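 Fitness is a logarithmic measure of how a genotype enriched relative to the wild type, with replicate averages weighted by inverse variance. The logarithm uses base 2, and enrichment came from Illumina sequencing of input and output libraries. Those libraries were PCR-built, transcribed mutants of each subunit of a heterodimeric triplet polymerase ribozyme, passed through one triplicate in vitro selection round that included frozen incubation at −7 °C, gel excision of extended constructs and streptavidin-bead capture. Genotypes were kept only if they had ≥10 input reads and ≥1 read per output.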

First: U15G G42C C54G C93A U102G C116U G117C U135C U145G G152U
Second: A16C C85G
The “polymerase ribozyme fitness (log ratio)” value of the first is lower: at most -4.2 for the first, -4.13 for the second.

First: A16C C85U
Second: A16C G92C U102A G133C A150G
The “polymerase ribozyme fitness (log ratio)” value of the first is higher: -1.75 for the first, at most -4.2 for the second.

Compared with A16G A23G A41C A52C C131U C132G U151G, A16G A22U A47C C95A C96U is higher in “polymerase ribozyme fitness (log ratio)” value: at most -4.2 for the first, -3.89 for the second.

Compared with A16C G83U, U15G A16C A21U A26C C103U is lower in “polymerase ribozyme fitness (log ratio)” value: -1.56 for the first, -3.98 for the second.

Compared with A16C U44G A49U U55A U56A G70U A89U C95U A115U C118G A122U, A16C G50A C85U is higher in “polymerase ribozyme fitness (log ratio)” value: at most -4.2 for the first, -3.26 for the second.

U15A C32U G84C C85A C118U U135A A142U G143C and A16G A40C C63A A73U G88U A98U C116A U148C cannot be ordered by “polymerase ribozyme fitness (log ratio)” value: at most -4.2 for the first, at most -4.2 for the second.

A16G A20U U33G C85A G94A A150C and A16G A17C A19G A30G G88A C93G cannot be ordered by “polymerase ribozyme fitness (log ratio)” value: at most -4.2 for the first, at most -4.2 for the second.

U15C A16U C18U A49C C85G A147G A150U and U15C U56G C79A G143U cannot be ordered by “polymerase ribozyme fitness (log ratio)” value: at most -4.2 for the first, at most -4.2 for the second.

U15A G48A C87U A91U C93U and A16G A28U C87A A107C cannot be ordered by “polymerase ribozyme fitness (log ratio)” value: at most -4.2 for the first, at most -4.2 for the second.

Compared with U15G U77C G80U G86C A121U U127A G143U, A16C U56C C87U is higher in “polymerase ribozyme fitness (log ratio)” value: at most -4.2 for the first, -2.13 for the second.

U15G A21U U31C C54U A66C A122U G133A and U15C A21G A23C G42A A150U cannot be ordered by “polymerase ribozyme fitness (log ratio)” value: at most -4.2 for the first, at most -4.2 for the second.

U15C C75A G80C C99G and U15A G70A G88C G126A G128U cannot be ordered by “polymerase ribozyme fitness (log ratio)” value: at most -4.2 for the first, at most -4.2 for the second.

U15G C76G G86C A122U G133C A142G U148G and U15G U31A G42A G48A C63A A64C G86U G94A cannot be ordered by “polymerase ribozyme fitness (log ratio)” value: at most -4.2 for the first, at most -4.2 for the second.

U15A C27G A30U G68A A89U C95G A98U and U15G A21U C35U A41C G50A G92A G117A A122U cannot be ordered by “polymerase ribozyme fitness (log ratio)” value: at most -4.2 for the first, at most -4.2 for the second.

Going from U15G A49G C87U G136A to A16C G50C G58A G88C A137U, the “polymerase ribozyme fitness (log ratio)” value falls from -1.17 to at most -4.2.

A16C C32U G42A G59U G92A C123G and U15G C18G G46U A47U G50A G58A G81A G83U A115C cannot be ordered by “polymerase ribozyme fitness (log ratio)” value: at most -4.2 for the first, at most -4.2 for the second.

A16C C72U U82A C85U A91U and A16C A20U G59U G74U A120U U134G cannot be ordered by “polymerase ribozyme fitness (log ratio)” value: at most -4.2 for the first, at most -4.2 for the second.

A16C U90G and U15C A26U C96U C108A U135A cannot be ordered by “polymerase ribozyme fitness (log ratio)” value: at most -4.2 for the first, at most -4.2 for the second.

Compared with A16G A19G A39U A40C A41U U56A A97C A120G G128A A142U, A16G A49U C131U is higher in “polymerase ribozyme fitness (log ratio)” value: at most -4.2 for the first, -1.5 for the second.

U15G A52G U55A C75U G88C U90C A138U and U15G A37U G42C U53G A60U U61G C79A G86A G128C U146G cannot be ordered by “polymerase ribozyme fitness (log ratio)” value: at most -4.2 for the first, at most -4.2 for the second.

U15A C43A G86A C87U A119U and A16C A24G G59C U77C G86U C99A G152C cannot be ordered by “polymerase ribozyme fitness (log ratio)” value: at most -4.2 for the first, at most -4.2 for the second.

A16C U44A G70U G81A C85A A89G C108U A115U A119G U145C U151G and A16G A23C A41G U61A G83U G86A cannot be ordered by “polymerase ribozyme fitness (log ratio)” value: at most -4.2 for the first, at most -4.2 for the second.

U15G A26C U31C U44G G46A C118U C129A and U15G G42U A47U C87A C132U A137C cannot be ordered by “polymerase ribozyme fitness (log ratio)” value: at most -4.2 for the first, at most -4.2 for the second.

U15C A21U C32G U33A C75G C85U G94U A107G A142G and U15G A39U U82G G84A G112U cannot be ordered by “polymerase ribozyme fitness (log ratio)” value: at most -4.2 for the first, at most -4.2 for the second.

A16C C18G U53G A91U G100A and U15A A49C A60C G83C C129G cannot be ordered by “polymerase ribozyme fitness (log ratio)” value: at most -4.2 for the first, at most -4.2 for the second.

A16C G58C G71A G136A and A16G A17G C38G G58A A89G C93G A106G G112C A147G cannot be ordered by “polymerase ribozyme fitness (log ratio)” value: at most -4.2 for the first, at most -4.2 for the second.

First: A16C A26U U56A A66C C75A C85U A91U U111A A138U
Second: U15G C27A
The “polymerase ribozyme fitness (log ratio)” value of the first is lower: at most -4.2 for the first, -4.13 for the second.

A16C A24G A47C C85G A97C A120G and A16C C54G U77G C85U U135C cannot be ordered by “polymerase ribozyme fitness (log ratio)” value: at most -4.2 for the first, at most -4.2 for the second.

A16C A60U C69U C99G G126C U127A and U15A G25C A29C G48C A64U C93U C95A C149A cannot be ordered by “polymerase ribozyme fitness (log ratio)” value: at most -4.2 for the first, at most -4.2 for the second.

First: U15G U53A A60C G83A C85U
Second: U15A C27U C43G C51G U56A G80C C93A C118U A147U
The “polymerase ribozyme fitness (log ratio)” value of the first is higher: -3.78 for the first, at most -4.2 for the second.

A16C C57U A60C C93U C118U G140U G143C and A16C G71A G84A U109C G141A cannot be ordered by “polymerase ribozyme fitness (log ratio)” value: at most -4.2 for the first, at most -4.2 for the second.

U15G C38G A107U A113U and A16G A24U A29U G59A G62A A64G G68C G88A C95U A122U U130C cannot be ordered by “polymerase ribozyme fitness (log ratio)” value: at most -4.2 for the first, at most -4.2 for the second.

A16C C43U G50A C76G G80A C93A C103U G141U U151A and A16C G94U A107G C116A C132U A142G cannot be ordered by “polymerase ribozyme fitness (log ratio)” value: at most -4.2 for the first, at most -4.2 for the second.

First: A16G A21C G48C C54A G58U C93U A122G
Second: A16G A40C C51G C76U C93G A97G G126A
The “polymerase ribozyme fitness (log ratio)” value of the first is higher: -3.83 for the first, at most -4.2 for the second.

A16G A28C C36A U44A G48C A49C C76G U77C A91U C103G U135C G141C and U15G A28G C35U U55G U56G C95A A150C cannot be ordered by “polymerase ribozyme fitness (log ratio)” value: at most -4.2 for the first, at most -4.2 for the second.

Compared with U15G C79U G84U C99U U104G, A16C G94A is higher in “polymerase ribozyme fitness (log ratio)” value: at most -4.2 for the first, -1.78 for the second.

A16G A23C U55G G88A C108A U111C A122C and U15G A28G A41C G46C G48A C76U G83U A97G U145C A150C cannot be ordered by “polymerase ribozyme fitness (log ratio)” value: at most -4.2 for the first, at most -4.2 for the second.

A16C A29G A122G G141U and U15G A30C U82G C87A C99G A110U A121U G136A cannot be ordered by “polymerase ribozyme fitness (log ratio)” value: at most -4.2 for the first, at most -4.2 for the second.

U15G A41U U56A U61A C76G C93G A115U A150U and U15G A20U A37G U45A G50C G70U C95U C118G G141C A147C G152A cannot be ordered by “polymerase ribozyme fitness (log ratio)” value: at most -4.2 for the first, at most -4.2 for the second.

A16C A17C U31G G50C C87A G88C C95G U135C and A16C U56A U78A C93U C116G A137C cannot be ordered by “polymerase ribozyme fitness (log ratio)” value: at most -4.2 for the first, at most -4.2 for the second.

A16G A47C C79G G81A U101G and U15G A29C G100A cannot be ordered by “polymerase ribozyme fitness (log ratio)” value: at most -4.2 for the first, at most -4.2 for the second.

A16C A20C U55A G74A G88U C93U A98G A106G A119U G126U and U15C A30U U31C C36G A40U C51U cannot be ordered by “polymerase ribozyme fitness (log ratio)” value: at most -4.2 for the first, at most -4.2 for the second.

Source: the RNAGym collection of RNA variant scans (doi:10.1073/pnas.2313332121)
